Results published in PubChem BioAssay AID485344 (National Center for Advancing Translational Sciences (NCATS), 2010).
“And” between values parts separate entries of the source, which are not always exact repeats. Equal entries are not always repeated. Out of some 340,000 compounds screened, about 6,900 (2%) were called active. No stated cut-off is given here; in the data, active means inhibition above about 30%; inactive means below that, where a call was filed. This is a selection; strong and weak results do not stand in their true shares. The source gives no active or inactive call for entries shown without one.

Biological target: D(2) dopamine receptor (Homo sapiens) (UniProt P14416)
Chain of UniProt P14416 (P14416 whole entry, looked up): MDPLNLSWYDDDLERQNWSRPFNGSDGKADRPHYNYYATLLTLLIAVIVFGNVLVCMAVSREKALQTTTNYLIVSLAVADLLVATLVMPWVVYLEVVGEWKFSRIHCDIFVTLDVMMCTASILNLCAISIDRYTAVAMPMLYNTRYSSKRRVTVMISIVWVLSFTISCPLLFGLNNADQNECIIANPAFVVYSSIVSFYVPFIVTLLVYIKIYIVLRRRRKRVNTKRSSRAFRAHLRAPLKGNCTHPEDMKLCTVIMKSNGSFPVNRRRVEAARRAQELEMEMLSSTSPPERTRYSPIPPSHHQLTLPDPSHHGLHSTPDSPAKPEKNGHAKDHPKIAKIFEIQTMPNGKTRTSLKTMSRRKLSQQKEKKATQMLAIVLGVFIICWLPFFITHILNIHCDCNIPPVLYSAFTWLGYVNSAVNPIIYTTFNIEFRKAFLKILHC
Assay: HTS Assay for Allosteric Antagonists of the Human D2 Dopamine Receptor: Primary Screen for Antagonists; further: 0% is about no effect
Conditions: HEK293 TREx D2 cells, calcium flux, dopamine EC80; at 10 µM; stronger effect = higher value
Outline: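 Tetracycline-induced HEK293 TREx cells expressing D2 receptor forced-coupled to calcium signalling, loaded with no-wash calcium dye. Compounds added and calcium flux read 180 s, then dopamine added at EC80 and read a further 180 s.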

In order of rising inhibition:
1. CCn1ccc2c(OCC(=O)Nc3ccc(C(C)=O)cc3)cccc2c1=O  -28.2%
2. CCN1C(=O)c2ccccc2S(=O)(=O)c2ccc(C(=O)NCc3ccc(OC)cc3)cc21  -28.2%
3. Cc1cc(Cl)ccc1NC(=O)C1CCN(S(=O)(=O)c2ccc3[nH]c(=O)ccc3c2)CC1  -22.2%
4. Cc1cc(Nc2cccc(F)c2)n2nc(-c3ccco3)nc2n1  -21.4%
5. N#Cc1ccccc1CSc1nnc2ccc3ccccc3n12  -21.4%
6. Cc1cccc(CSc2ncc(Cl)c(C(=O)Nc3sc4c(c3C#N)CCCC4)n2)c1  -18.6%
7. NC(=O)C1(N2CCCCC2)CCN(C(=O)Nc2ccc(Cl)c(Cl)c2)CC1  -17.7%
8. CCN(CC)CCNC(=O)c1cn(CC)c2ccc(S(=O)(=O)N(C)C3CCCCC3)cc2c1=O  -16.9%
9. CC(=O)Nc1ccc(NC(=O)Nc2sc3nc4n(c(=O)c3c2C)CCC(C)CC4)cc1 (configuration not stated)  -13.5%
10. O=C(NCc1ccccc1)c1cccc(NC(=O)N2CCSc3ncccc32)c1  -12.9%
11. COc1ccc(CCNC(=O)CSc2nc3ccccc3nc2Cc2ccc(C)cc2)cc1OC  -12.2%
12. CCCN1CCN(CCCNC(=O)C(CC)n2nc(C)n3c(cc4occc43)c2=O)CC1 (configuration not stated)  -12.1%
13. COc1ccccc1CNC(=O)C1CCN(C(=O)c2sccc2-n2cccc2)CC1  -10.6%
14. CCOc1ccc(Cn2nnc(C(=O)Nc3ccc(Cl)cc3)c2N)cc1  -10.2%
15. Cc1cccc(CN2C(=O)c3ccccc3Sc3ccc(C(=O)NCCc4ccccc4)cc32)c1  -9.52%
16. CCC(C(=O)NC1CCCCC1)n1c(SCc2cccc(C)c2)nc2ccncc21 (configuration not stated)  -8.92%
17. CC(NC(=O)c1ccco1)c1nc(-c2ccccc2)no1 (configuration not stated)  -8.38%
18. CCc1ccccc1NC(=O)CSc1nnc(-c2ccccc2)c(-c2ccccc2)n1  -8.24%
19. COc1ccccc1CNC(=O)c1nn(-c2ccc(C)cc2)c(=O)c2c1c1ccccc1n2C  -7.05%
20. COc1ccccc1CNC(=O)c1cc2c(-c3ccc(Cl)cc3)nn(C)c2s1  -7.04%
21. COc1cccc(NC(=O)c2sc3nc(C)c(C(=O)Nc4ccc(C)cc4C)c(-c4ccc(Br)cc4)c3c2N)c1  -6.7%
22. CN(C1CCCCC1)S(=O)(=O)c1ccc2c(c1)c(=O)c(C(=O)NCc1ccc(F)cc1)cn2C  -6.55%
23. CCOc1ccccc1CNC(=O)Cn1nc(C)c2nn(-c3ccc(Cl)cc3)c(C)c2c1=O  -6.52%
24. CCC(=O)N1CCc2cc(CNS(=O)(=O)c3ccc(Cl)s3)ccc21  -6.46%
25. COc1ccc(/C=C/C(=O)Nc2ccc(Cl)c(Cl)c2)cc1OC  -5.37%
26. Cc1ccc2nc(SC(Cc3cc(Cl)ccc3Cl)C(=O)O)[nH]c2c1 (configuration not stated)  -4.76%
27. COc1cccc(NC(=O)c2cc3c(-c4ccc(Cl)cc4)nn(C)c3s2)c1  -4.12%
28. O=C(CN(c1ccc(Cl)c(C(F)(F)F)c1)S(=O)(=O)c1ccccc1)Nc1cccnc1  -3.81%
29. Cc1cc(=O)n(CC(=O)NC(C)c2ccccc2)c2c1c(C)nn2-c1cccc(F)c1 (configuration not stated)  -3.17%
30. Cc1cccc(N(C)C(=O)C2CCN(S(=O)(=O)c3cccc4nonc34)CC2)c1  -2.45%
31. CCc1cccc(CC)c1NC(=O)Cc1csc(C)n1  -2.29%
32. O=C(NCC(c1cccnc1)N1CCN(Cc2ccccc2)CC1)C(=O)Nc1cccc(Cl)c1 (configuration not stated)  -2.11%
33. O=C(CN1C(=O)COc2ccc(S(=O)(=O)N3CCCCC3)cc21)NCCc1ccc(Cl)cc1  -1.99%
34. COC(=O)c1cc(NC(=O)c2sc3ccccc3c2Cl)cc(C(=O)OC)c1  -1.3%
35. COc1ccc(OC)c(NC(=O)c2ccc(-c3nc(COc4ccccc4)c(C)o3)cc2)c1  -1.11%
36. COC(=O)c1cc2occc2n1CC(=O)Nc1ccc(C)cc1Cl  -0.852%
37. Cc1ccccc1C(=O)Nc1c(C(=O)Nc2cccc(F)c2)oc2ccccc12  -0.833%
38. CCSc1oc(-c2cccs2)nc1S(=O)(=O)c1ccc(Br)cc1  -0.745%
39. CCCSc1nnc2c(n1)OC(CC)N(C(C)=O)c1ccccc1-2 (configuration not stated)  -0.568%
40. CC1=C(c2ccc(C)c(C)c2)S(=O)(=O)N(Cc2ccc(C(=O)NCc3ccc(C)cc3)cc2)C1=O  -0.54%
41. O=C(O)c1cccc(-n2cnc3cccnc32)c1  -0.475%
42. Cc1c(NC(=O)c2cc3ccccc3o2)cccc1-c1nc2ccccc2o1  -0.16%
43. COc1ccc(N2CCN(S(=O)(=O)c3c(C)nc4sc(C)cn4c3=O)CC2)cc1  0.347%
44. COc1cc(OC)cc(-c2cc3nc(C)c(CCC(=O)Nc4ccccc4OC)c(C)n3n2)c1  1.21%
45. Cc1ccc(C(=O)Nc2ccccc2)cc1S(=O)(=O)Nc1ccccc1  1.46%
46. COc1ccc(N2CCN(C(=O)c3cc4c(=O)n(Cc5cccs5)ccc4nc3C)CC2)cc1  1.5%
47. CCOC(=O)c1c(-c2ccccc2)oc2ccc(N(C(C)=O)S(=O)(=O)c3ccccc3)cc12  2.62%
48. Cc1ccc2nc(Nc3ccc(Br)cc3)nc(-c3ccccc3)c2c1  2.63%
49. Cc1ccc2[nH]c(=O)c3cc(C(=O)N4CCN(c5ccccc5F)CC4)sc3c2c1  2.64%
50. Cc1cccn2c3c(c(=O)nc12)C(c1ccc(F)cc1)CC(=O)N3 (configuration not stated)  2.66%
51. Cn1c(C(=O)N2CCC(C(=O)NCCc3ccccc3)CC2)cc2sccc21  2.81%
52. COc1ccc(-c2ccc(=O)n(CC(=O)Nc3ccc(N(C)C)cc3)n2)cc1  3.22%
53. O=C(CSc1nc(-c2ccccc2)cc(=O)[nH]1)Nc1ccccc1F  4.29%
54. O=C(Cn1c(=O)oc2cc(S(=O)(=O)NCc3ccccc3)ccc21)NCc1ccc(F)cc1  4.38%
55. O=C(Cn1nc(C(F)(F)F)c2c1CCCC2)Nc1ccc(F)c(Cl)c1  4.5%
56. COc1ccc(CNC(=O)c2cc3sccc3n2C)cc1  5.21%
57. CCCN(C(=O)c1c(C)oc2ncnc(N3CCOCC3)c12)c1ccc(Cl)c(Cl)c1  5.22%
58. COc1ccc(-c2nc3ccc(C(=O)NCc4ccccc4)cc3nc2-c2ccc(OC)cc2)cc1  6%
59. COCc1c(Br)c(C)nc2sc3c(=O)n(-c4cccc(Br)c4)nnc3c12  6.35%
60. CCCCc1nn2c(=O)cc(COC(=O)CNC(=O)c3ccccc3C)nc2s1  6.98%
61. Cc1ccccc1NC(=O)c1ccccc1NC(=O)c1ccccc1F  7.18%
62. O=C(NCc1ccc2c(c1)OCO2)c1ccc2c(c1)N(Cc1ccccc1F)C(=O)c1ccccc1S2=O (configuration not stated)  7.78%
63. COc1cc(C2NC(=O)N(C)C3=C2C(=O)N(c2ccccc2)C3)ccc1O (configuration not stated)  7.88%
64. COC(=O)COc1ccc(Oc2nc(NC(C)(C)C)nc(N3CCOCC3)n2)nn1  8.23%
65. CSc1ccc(C2c3c(oc4ccc(F)cc4c3=O)C(=O)N2c2ccc(C)cn2)cc1 (configuration not stated)  8.24%
66. Cc1ccc(C(C)C)c(OCCSc2nc(-c3cccs3)nc3cc(=O)[nH]n23)c1  9.23%
67. Cc1cccc(N2CCN(c3ncnc4c3nc3n4CCCCC3)CC2C)c1 (configuration not stated)  9.24%
68. COc1ccccc1NC(=O)CSc1oc(-c2cccs2)nc1S(=O)(=O)c1ccc(C)cc1  9.33%
69. NC(=O)CSc1nc2c(oc3ccccc32)c(=O)n1Cc1ccccc1  11.4%
70. CC1=C(C(=O)Nc2ccc(C)c(C)c2)C2(CCCCCC2)OC1=O  12.2%
71. Cc1coc2cc3oc(=O)c(CCC(=O)NCc4ccccc4Cl)c(C)c3cc12  12.7%
72. CCOc1ccc(NC(=O)c2cc(CN3CCCC3)on2)cc1  13.2%
73. COc1ccc(-c2nn(-c3ccc(C)cc3)c3c2cnc2ccc(C)cc23)cc1OC  14.2%
74. COC(=O)c1c(C)oc2ccc(N(C(=O)c3ccncc3)S(=O)(=O)c3cc(C)ccc3C)cc12  14.2%
75. CCOc1ccc2oc(=O)cc(CN3CCN(C(=O)c4ccc(Cl)cc4)CC3)c2c1  14.6%
76. CCc1nnc(NC(=O)c2nc(SC)ncc2Cl)s1  14.7%
77. Cc1c(C(=O)NCc2ccc(F)cc2)sc2nc3n(c(=O)c12)CCC3  15.7%
78. Cc1cccc(OCC(=O)NCc2ccc3c(c2)CCN3C(=O)c2ccccc2)c1  16.2%
79. COc1ccc(Cc2nc3c4cnn(-c5ccccc5Br)c4ncn3n2)cc1  17%
80. CCOc1ccc(-c2nc(CSCC(=O)NCc3ccc(C)cc3)c(C)o2)cc1  18.5%
81. COc1ccc(OC)c(NC(=O)Cn2cc(C(=O)c3cccs3)c3ccccc32)c1  19.4%
82. CCN(CC)c1nc2c(S(=O)(=O)c3ccc(C)cc3)nnn2c2ccsc12  19.4%
83. O=S(=O)(NCC(c1ccco1)N1CCN(c2ccccc2)CC1)c1ccccc1 (configuration not stated)  19.6%
84. CCC(C)NC(=O)c1sc2nc(C)c(C(=O)Nc3ccc(C)cc3C)c(-c3ccc(Br)cc3)c2c1N (configuration not stated)  20.6%
85. CCn1ccc2cc(S(=O)(=O)N3CCC(C(=O)NCc4ccc(OC(C)C)cc4)CC3)ccc21  21.9%

With `Cc1nc2nc(SCC(=O)c3cccc([N+](=O)[O-])c3)[nH]c2cc1Br` the inhibition was active: 38.3%.
In the case of `O=C(Nc1nnc(S(=O)(=O)N2CCCC2)s1)c1ccccc1Cl`, the inhibition is reported as -6.19% and active: 34.9%.
`O=C(Nc1cccc(Cl)c1)NC1CC2CCC(C1)N2Cc1ccco1` (configuration not stated) was tested, and the inhibition was active: 64.3%.
For `Cc1ccccc1NC(=S)NC1CC2CCC(C1)N2Cc1ccco1` (configuration not stated), the inhibition was active: 39.1%.
With `Cc1ccc(C)c(NC(=O)CCN2CCN(c3ccccc3F)CC2)c1` the inhibition was active: 66.9%.
In the case of `COc1ccc([N+](=O)[O-])cc1NC(=O)C(C)OC(=O)Cn1[nH]c(=O)c2ccccc2c1=O` (configuration not stated), the inhibition is reported as active: 35.8%.
In the case of `OCC1(CCc2ccccc2)CCN(Cc2ccc3nsnc3c2)CC1`, the inhibition is reported as active: 36.1%.
For `COc1cccc(-n2c(SCC(=O)NCc3ccco3)nnc2-c2c[nH]c3ccccc23)c1`, the inhibition was active: 48.4%.
In the case of `O=C(NCCCN1CCCCC1)c1ccc(CS(=O)c2ccc(F)cc2)o1` (configuration not stated), the inhibition is reported as active: 31.8%.
`CCC1Oc2nc(SC)nnc2-c2ccccc2N1C(=O)c1ccccc1` (configuration not stated) was tested, and the inhibition was active: 34%.
`O=C(CN1CCc2ccccc2C1)Nc1ccccc1F` was tested, and the inhibition was active: 64.5%.
`CN1CCC(N(C)C(=O)COc2ccccc2Cl)CC1` was tested, and the inhibition was active: 31.1%.
